Results from article PMC11015022.
Results are given in words; binding and its absence hold for the method and conditions named. Binding seen in cells or lysates may run through a third protein. Some results given as binding are weak or reduced against the parent protein; the word gives no strength.

Sequences of proteins named here, by UniProt entry; tags and fusion partners are left off.
UniProt P63017: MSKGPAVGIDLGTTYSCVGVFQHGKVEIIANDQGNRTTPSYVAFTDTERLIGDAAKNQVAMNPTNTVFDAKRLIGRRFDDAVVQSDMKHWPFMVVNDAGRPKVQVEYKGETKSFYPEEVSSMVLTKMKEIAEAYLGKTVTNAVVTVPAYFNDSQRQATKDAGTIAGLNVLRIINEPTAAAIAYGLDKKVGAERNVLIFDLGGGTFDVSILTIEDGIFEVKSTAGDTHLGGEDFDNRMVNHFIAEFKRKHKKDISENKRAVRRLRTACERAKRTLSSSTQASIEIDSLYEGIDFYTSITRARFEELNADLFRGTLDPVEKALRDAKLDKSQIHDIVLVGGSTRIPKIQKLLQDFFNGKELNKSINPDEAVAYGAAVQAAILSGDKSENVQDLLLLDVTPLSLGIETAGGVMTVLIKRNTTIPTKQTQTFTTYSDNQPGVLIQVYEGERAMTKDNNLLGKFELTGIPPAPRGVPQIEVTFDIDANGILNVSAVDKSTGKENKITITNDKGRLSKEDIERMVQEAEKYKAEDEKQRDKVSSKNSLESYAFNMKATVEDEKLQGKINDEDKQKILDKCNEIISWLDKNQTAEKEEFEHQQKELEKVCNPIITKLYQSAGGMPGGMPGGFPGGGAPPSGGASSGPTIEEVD
UniProt P11142: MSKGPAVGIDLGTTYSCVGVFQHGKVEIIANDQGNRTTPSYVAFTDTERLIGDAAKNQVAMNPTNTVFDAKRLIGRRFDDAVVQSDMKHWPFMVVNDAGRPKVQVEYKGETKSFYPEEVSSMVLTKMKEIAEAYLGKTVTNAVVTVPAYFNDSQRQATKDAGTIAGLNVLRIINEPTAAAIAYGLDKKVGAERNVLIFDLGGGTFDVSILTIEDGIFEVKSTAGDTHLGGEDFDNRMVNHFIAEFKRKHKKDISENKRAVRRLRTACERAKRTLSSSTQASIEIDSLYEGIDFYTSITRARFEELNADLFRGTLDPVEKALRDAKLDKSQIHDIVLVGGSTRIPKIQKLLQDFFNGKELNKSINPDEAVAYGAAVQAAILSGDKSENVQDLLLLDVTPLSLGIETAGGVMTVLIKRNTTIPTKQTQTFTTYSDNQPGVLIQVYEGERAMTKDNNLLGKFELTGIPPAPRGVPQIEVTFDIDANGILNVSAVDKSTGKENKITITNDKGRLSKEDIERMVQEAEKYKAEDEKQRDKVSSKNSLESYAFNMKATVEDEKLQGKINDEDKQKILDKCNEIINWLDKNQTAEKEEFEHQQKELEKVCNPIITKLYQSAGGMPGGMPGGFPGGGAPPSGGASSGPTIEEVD
UniProt P51807: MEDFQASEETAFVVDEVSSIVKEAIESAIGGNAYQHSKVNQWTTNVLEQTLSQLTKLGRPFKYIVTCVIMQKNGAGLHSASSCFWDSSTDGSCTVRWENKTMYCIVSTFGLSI
UniProt P63172: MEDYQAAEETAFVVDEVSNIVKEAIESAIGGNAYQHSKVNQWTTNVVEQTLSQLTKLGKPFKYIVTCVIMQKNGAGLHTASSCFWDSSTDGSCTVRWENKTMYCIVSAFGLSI
UniProt Q99104: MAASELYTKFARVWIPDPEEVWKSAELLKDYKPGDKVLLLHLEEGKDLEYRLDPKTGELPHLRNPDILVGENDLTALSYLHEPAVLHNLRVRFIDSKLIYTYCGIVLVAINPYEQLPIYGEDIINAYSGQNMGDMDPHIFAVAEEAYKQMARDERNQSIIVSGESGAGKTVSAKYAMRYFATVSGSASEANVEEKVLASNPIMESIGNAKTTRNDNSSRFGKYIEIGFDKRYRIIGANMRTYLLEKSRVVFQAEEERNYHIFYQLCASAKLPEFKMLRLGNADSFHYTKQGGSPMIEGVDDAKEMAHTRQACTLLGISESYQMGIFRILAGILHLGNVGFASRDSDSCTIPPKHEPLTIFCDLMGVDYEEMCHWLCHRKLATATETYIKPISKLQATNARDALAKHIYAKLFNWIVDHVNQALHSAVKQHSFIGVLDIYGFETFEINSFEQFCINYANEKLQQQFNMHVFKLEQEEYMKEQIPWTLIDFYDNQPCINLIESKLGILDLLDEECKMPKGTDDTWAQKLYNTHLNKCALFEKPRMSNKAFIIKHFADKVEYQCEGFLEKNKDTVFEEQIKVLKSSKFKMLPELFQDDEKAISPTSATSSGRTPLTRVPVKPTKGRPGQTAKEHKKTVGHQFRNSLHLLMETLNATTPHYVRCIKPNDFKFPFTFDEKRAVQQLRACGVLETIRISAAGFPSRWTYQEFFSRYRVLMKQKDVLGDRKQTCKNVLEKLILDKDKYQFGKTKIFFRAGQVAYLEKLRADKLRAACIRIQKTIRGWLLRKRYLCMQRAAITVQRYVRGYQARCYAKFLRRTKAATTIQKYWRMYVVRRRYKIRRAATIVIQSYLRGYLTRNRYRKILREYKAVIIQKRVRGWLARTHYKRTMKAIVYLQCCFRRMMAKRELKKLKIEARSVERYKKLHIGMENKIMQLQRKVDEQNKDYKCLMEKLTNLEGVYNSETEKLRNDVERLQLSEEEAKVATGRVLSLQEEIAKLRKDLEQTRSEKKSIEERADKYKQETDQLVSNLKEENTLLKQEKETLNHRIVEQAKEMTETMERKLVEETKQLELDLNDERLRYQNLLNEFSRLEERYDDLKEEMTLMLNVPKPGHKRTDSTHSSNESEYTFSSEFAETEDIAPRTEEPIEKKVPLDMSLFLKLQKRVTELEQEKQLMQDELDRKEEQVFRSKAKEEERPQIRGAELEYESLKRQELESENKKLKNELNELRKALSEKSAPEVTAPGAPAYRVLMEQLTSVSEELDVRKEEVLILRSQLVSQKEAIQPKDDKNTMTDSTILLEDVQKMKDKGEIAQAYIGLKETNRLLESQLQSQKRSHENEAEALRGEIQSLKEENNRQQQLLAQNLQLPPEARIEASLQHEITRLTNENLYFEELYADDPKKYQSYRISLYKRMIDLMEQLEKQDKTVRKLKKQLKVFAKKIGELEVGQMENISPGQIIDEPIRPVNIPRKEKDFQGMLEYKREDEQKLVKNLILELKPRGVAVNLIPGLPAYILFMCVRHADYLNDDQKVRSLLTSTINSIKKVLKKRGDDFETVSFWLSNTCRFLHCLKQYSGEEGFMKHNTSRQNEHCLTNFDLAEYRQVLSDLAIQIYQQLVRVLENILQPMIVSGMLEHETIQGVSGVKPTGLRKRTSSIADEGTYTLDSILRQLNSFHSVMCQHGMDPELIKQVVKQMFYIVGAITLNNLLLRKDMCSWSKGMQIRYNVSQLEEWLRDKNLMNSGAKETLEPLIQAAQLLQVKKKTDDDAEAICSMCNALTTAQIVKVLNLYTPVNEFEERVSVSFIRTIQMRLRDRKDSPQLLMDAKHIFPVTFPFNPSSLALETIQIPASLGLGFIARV
UniProt Q9Y4I1: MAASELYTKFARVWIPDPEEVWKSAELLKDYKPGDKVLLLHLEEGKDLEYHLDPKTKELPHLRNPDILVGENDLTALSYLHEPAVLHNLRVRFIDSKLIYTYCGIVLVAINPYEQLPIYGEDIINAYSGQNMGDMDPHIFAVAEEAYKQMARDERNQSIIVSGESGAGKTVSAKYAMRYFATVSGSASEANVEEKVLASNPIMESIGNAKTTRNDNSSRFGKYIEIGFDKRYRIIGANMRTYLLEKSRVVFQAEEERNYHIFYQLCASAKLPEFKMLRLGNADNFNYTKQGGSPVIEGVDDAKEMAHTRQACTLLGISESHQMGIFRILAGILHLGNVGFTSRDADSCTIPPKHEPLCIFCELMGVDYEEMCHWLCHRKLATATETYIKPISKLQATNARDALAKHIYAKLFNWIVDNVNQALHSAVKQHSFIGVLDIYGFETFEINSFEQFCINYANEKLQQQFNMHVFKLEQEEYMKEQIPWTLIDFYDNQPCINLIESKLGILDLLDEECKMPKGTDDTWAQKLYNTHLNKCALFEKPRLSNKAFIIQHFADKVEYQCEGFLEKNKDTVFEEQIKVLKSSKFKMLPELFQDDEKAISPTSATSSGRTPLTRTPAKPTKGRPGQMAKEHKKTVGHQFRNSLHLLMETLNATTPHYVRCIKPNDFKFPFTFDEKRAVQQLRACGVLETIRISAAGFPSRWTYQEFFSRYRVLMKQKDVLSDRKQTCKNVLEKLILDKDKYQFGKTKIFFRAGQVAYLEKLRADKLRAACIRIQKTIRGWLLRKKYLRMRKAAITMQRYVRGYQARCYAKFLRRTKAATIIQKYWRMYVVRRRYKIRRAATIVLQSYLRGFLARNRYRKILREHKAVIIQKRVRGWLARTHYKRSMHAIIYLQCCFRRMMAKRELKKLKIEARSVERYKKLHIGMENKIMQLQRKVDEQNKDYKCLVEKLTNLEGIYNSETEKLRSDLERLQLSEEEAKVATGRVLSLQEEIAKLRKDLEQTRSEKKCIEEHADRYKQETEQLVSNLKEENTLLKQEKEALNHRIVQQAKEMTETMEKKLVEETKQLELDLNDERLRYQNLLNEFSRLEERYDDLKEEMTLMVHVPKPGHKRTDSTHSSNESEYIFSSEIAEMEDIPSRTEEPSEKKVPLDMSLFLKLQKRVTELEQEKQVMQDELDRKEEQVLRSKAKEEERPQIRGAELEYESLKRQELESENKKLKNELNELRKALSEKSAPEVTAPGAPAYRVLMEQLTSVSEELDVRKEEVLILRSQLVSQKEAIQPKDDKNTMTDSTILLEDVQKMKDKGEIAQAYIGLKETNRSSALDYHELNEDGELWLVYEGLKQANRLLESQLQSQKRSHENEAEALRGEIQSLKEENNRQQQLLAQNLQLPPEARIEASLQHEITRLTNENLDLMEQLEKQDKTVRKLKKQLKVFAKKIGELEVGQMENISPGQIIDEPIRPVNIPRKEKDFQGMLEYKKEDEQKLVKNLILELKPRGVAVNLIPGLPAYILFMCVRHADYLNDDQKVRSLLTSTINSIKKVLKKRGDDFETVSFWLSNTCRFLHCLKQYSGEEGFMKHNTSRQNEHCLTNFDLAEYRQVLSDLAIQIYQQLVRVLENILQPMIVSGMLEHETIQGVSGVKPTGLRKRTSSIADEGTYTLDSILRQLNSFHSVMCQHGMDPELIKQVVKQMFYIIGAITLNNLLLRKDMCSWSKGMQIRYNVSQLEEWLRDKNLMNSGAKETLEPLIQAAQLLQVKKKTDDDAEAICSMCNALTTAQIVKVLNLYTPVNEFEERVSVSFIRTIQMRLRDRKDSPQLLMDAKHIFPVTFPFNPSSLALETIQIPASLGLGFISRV

What was measured:
[1] = target: HSPA8 (heat shock cognate 70 kDa protein) (mouse (endogenous in mouse testis)) (UniProt P63017); assay: co-IP; endogenous proteins from WT mouse testis lysate (20 mM HEPES, 150 mM NaCl, 0.5% NP-40, 1 mM DTT, pH 7.3), protein A/G magnetic beads, Western blot; IgG as negative control; in Fig. 8B lysates also treated with ATP (HSPA8-SPATA6 binding reduced)
[2] = target: T1, BAG5 (mouse (endogenous in mouse testis)) (UniProt Q8CI32); assay: as above
T1 sequence: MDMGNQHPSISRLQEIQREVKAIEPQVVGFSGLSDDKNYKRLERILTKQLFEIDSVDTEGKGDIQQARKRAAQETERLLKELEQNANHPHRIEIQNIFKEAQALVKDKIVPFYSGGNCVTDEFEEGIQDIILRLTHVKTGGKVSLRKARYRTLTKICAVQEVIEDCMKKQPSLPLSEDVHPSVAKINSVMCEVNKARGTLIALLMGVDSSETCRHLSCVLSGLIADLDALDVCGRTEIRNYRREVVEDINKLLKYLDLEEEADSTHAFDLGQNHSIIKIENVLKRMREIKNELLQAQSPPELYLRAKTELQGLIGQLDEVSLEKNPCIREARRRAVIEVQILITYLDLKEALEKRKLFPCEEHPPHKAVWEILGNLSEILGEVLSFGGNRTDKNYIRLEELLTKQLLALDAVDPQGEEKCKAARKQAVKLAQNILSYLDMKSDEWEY

[3] = target: HSPA8 (heat shock cognate 70 kDa protein) (mouse (endogenous in mouse testis)) (UniProt P63017); assay: condition: only in the absence of BAG5 (Bag5 KO testes); co-IP; HSPA8 IP from Bag5 KO mouse testis lysate, Western blot; IgG as negative control
[4] = target: HSPA8 (in HeLa cells) (human (endogenous in HeLa)) (UniProt P11142); assay: condition: only in the absence of BAG5 (BAG5 KO HeLa cells); co-IP; HSPA8 IP from BAG5 KO HeLa cells co-transfected with pCAG-BAG5 (or pCAG) and pCAG-SPATA6, Western blot; IgG as negative control
[5] = target: HSPA8 (in HeLa cells) (human (endogenous in HeLa)) (UniProt P11142); assay: co-IP; HSPA8 IP from WT HeLa cells co-transfected with pCAG-BAG5 (or pCAG) and pCAG-SPATA6, Western blot; IgG as negative control

Substance	binding [1]	binding [2]	binding [3]	binding [4]	binding [5]
DYNLT1 (from UniProt P51807 1-113)	binds	binds	no binding		
DYNLT1 (in HeLa cells) (from UniProt P63172 1-113)				no binding	binds
MYO5A (from UniProt Q99104 1-1853)	binds	binds	no binding		
MYO5A (in HeLa cells) (from UniProt Q9Y4I1 1-1855)				no binding	binds
